Assay results from US12006361 (SONNET BIOTHERAPEUTICS, dated 2024).

Columns and labels:
[1] = molecular target: T1, mouse serum albumin (mouse, UniProt P07724 25-608); test: ELISA, plate coated with MSA; culture medium of HEK293 clones from 24-well plates, concentration not given
T1 construct: also called MSA
Description: Figure 5B: Figure 8A: FIG. 8A and FIG. 8B depicts studies assessing the expression level (FIG. 8A) and ability of HEK293 cell-produced IL-15-ABD K86R and K86A variants and IL-15Rα/IL-15-ABD to bind mouse serum albumin (FIG. 8A) and IL-15Rα (FIG. 8B). A) ELISA readout for IL15-ABD binding to mouse serum albumin (MSA) of 12 WT IL15-A10m3 clones (WT), 12 IL-15Rα/IL-15-A10m3 clones (IL15Ra), 6 IL-15 K86A-A10m3 mutant clones (K86A) and 6 IL-15 K86R-A10m3 mutant clones (K86R). Culture medium of each sample well from 24-well plates was added to ELISA plates coated with MSA. B) ELISA for binding of IL-15 to IL-15 receptor alpha (IL-15Rα) which was coated on the plate was used to confirm that K86A (clone A3, yellow star) and K86R (clone R6, green star) mutations had no impact on the binding activity of IL-15 to IL-15Rα. The internal IL-15Rα in IL-15Rα-IL-15-A10m3 (clone alpha1, red star) could bind to internal IL15 and thus block its binding to IL-15Rα coated on the plate. 10 ug/ml of E. coli produced WT IL-15-A10m3 was used as positive control. Figure 8B: Figure 9A: FIG. 9A-FIG. 9C depicts the scaled-up production of IL15K86R-A10m3 clone #6. […]

[2] = molecular target: T1, mouse serum albumin; test: Octet (biolayer interferometry), pH 7.2, table headed 'Octet-hIL15R6-A10m3 B01 MSA pH7.2 1-13-2016'; same value in all three rows (138.9, 69.4 and 34.7 nM); Full R^2 0.986743
[3] = molecular target: T1, mouse serum albumin; test: Octet (biolayer interferometry), pH 7.2; printed under the table
[4] = molecular target: T2, mouse TGFβ1 (mouse, UniProt P04202 fragment); test: binding ELISA, purified scFv
T2 construct: also called mTGFβ1; mTGFβ-1
T2 sequence (P04202 279-390 limits assumed): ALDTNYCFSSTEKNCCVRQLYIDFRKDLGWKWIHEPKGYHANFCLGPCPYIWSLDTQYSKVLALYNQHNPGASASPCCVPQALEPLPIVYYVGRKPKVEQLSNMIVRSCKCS

[5] = molecular target: T3, human TGFβ1 (human, UniProt P01137 fragment); test: binding ELISA, purified scFv
T3 construct: also called hTGFβ1; hTGFβ-1
T3 sequence (P01137 279-390 limits assumed): as the sequence (P04202 279-390 limits assumed) above, with S75A counted along it

B1: IL-15 K86A-A10m3 (other)
chain: [about 120 residues with changes not printed]GGGGSGGGGSGGGGSGGGGSGGGGSEVQLVESGGGLIQPGRSLRLSCAASGITFDDAVMHWVRQAPGKGLEWVAGISSNSGYIGYADSVKGRFTISRDNAKNSLYLQMNRLRAEDTAVYYCVKGLYSNPRGGAFDIWGQGTMVTVSSASTGGGGSGGGGSGGGGSVHSSYVLTQPPSVSVAPGQTATITCGGNNIGTKSVHWYQQKPGQAPVLVVYADSDRPSGIPERVSGSNSGNTATLTISRVEAGDEADYYCQVWDSRSDHLWVFGGGTKLTVLG
modifications: Made in HEK293, so probably N-glycosylated; the letters do not carry this.
notes: Produced in HEK293 cells; also called IL-15-ABD K86A; clone A3
[1]
  binding result: binds

B2: IL-15 K86R-A10m3 (other)
chain: [about 120 residues with changes not printed]GGGGSGGGGSGGGGSGGGGSGGGGSEVQLVESGGGLIQPGRSLRLSCAASGITFDDAVMHWVRQAPGKGLEWVAGISSNSGYIGYADSVKGRFTISRDNAKNSLYLQMNRLRAEDTAVYYCVKGLYSNPRGGAFDIWGQGTMVTVSSASTGGGGSGGGGSGGGGSVHSSYVLTQPPSVSVAPGQTATITCGGNNIGTKSVHWYQQKPGQAPVLVVYADSDRPSGIPERVSGSNSGNTATLTISRVEAGDEADYYCQVWDSRSDHLWVFGGGTKLTVLG
modifications: Made in HEK293, so N-glycosylated; the letters do not carry this.
notes: Produced in HEK293 cells (glycosylated); also called IL-15-ABD K86R; IL-15R-A10m3
[2]
  Kd: 28.9 nM
[3]
  Kd: 28.9 nM

B3: 4D9 (scFv)
scFv: [about 100 residues not printed]EISGSYLGLVAFDIWGQGTMVTVSSASTGGGGSGGGGSGGGGSVHSSYVLTQPLSVSVAPGQTARMTCGGDNVGAKSVHWYQQKPGQAPVLLIYYDHDRPSGIPERFSGSNSGNTATLTITRVEAGDEADYYCQVWDPSSDVVFGGGTQLTVLGLGG
notes: also called anti-TGFβ-1 scFv 4D9
[4]
  binding result: binds
[5]
  binding result: binds
